SMILES strings stand for the structures. “And” between values parts separate entries of the source, which are not always exact repeats. Identical values can stand only once. Out of some 48,000 compounds screened, about 1,200 (2.5%) were called active. Inconclusive results (about 2%) are left out.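 The calls were made as follows: active = activation of at least 60% and not above a set upper limit (about 1 call in 100 departs from these limits); inconclusive = activation of 40% to 60%, or above that upper limit; inactive = activation under 40%.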 This is one part of the list.

This assay has as its target Probable G-protein coupled receptor 32 (Homo sapiens) (UniProt O75388). In words: qHTS for Agonists of Human Resolvin D1 Receptor DRV1. Conditions: CHO-K1 GPR32 beta-arrestin PathHunter luminescence, 90 min; at 76.9 µM; stronger effect = higher value; zero percent set by DMSO-only wells. The essentials: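 Beta-arrestin recruitment read-out: luminescence from complemented beta-Gal in CHO-K1 GPR32 PathHunter cells, measured 1 h after detection reagent at ambient temperature following 90 min compound exposure at 37 °C; DMSO served as basal (EC0) control.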
Chain of UniProt O75388 (O75388 whole entry, looked up): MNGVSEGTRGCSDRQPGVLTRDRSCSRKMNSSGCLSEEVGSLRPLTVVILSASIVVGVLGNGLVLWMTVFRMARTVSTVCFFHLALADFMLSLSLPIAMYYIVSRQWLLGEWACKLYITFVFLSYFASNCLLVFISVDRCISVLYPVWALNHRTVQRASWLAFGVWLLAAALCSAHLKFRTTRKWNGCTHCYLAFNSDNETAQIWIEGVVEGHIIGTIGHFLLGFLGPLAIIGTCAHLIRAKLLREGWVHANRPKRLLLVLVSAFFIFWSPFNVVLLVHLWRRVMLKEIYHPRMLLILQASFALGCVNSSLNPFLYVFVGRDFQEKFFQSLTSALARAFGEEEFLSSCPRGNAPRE
As for `COc1cc(C(=O)N2CCN(c3ccc(Nc4ccccc4)nn3)CC2)cc(OC)c1OC`, the activation is inactive: -17%. The value for `Cc1ccc(-n2nnnc2CNC(=O)c2ccccc2)cc1C` was inactive: -12.7%; that for `COc1ccc(N2CCN(CCCNC(=O)c3cc(Nc4ccccc4OC)nc4ccccc34)CC2)cc1` was inactive: 28.1%.

Take `Cc1ccc(Nc2nc(Nc3ccc(C)c(C)c3)nc(N3CCOCC3)n2)cc1C`: the activation was inactive: -23.5%. The value for `CCc1cccc(C)c1NC(=O)C1CCN(S(=O)(=O)Cc2ccccc2)CC1` was inactive: 9.12%.

As for `CC1CCCCN1S(=O)(=O)c1cc2c3c(c1)CC(=O)N3CCC2` (centres undefined), the activation was inactive: -30.6%. Consider `COc1ccc(N2CC(NC(=O)COc3ccc4ccccc4c3)CC2=O)cc1` (centres undefined), for which the activation was inactive: 1.38%. For `O=C(Cn1c(-c2cccs2)cc2ccccc21)NCc1ccccc1Br`, the activation was inactive: 2.53%.

As for `O=C(Cn1c(=O)n(Cc2ccc(C(=O)NCc3ccccc3Cl)cc2)c(=O)c2ccccc21)Nc1ccc(F)c(Cl)c1`, the activation is inactive: -5.59%. Take `COc1cc(C(=S)N2CCOCC2)cc(OC)c1OC`: the activation is inactive: -0.884%.

For `CC(C)Cc1ccc(CC(=O)O)cc1`, the activation was inactive: -4.82%. Next, `Cc1cccc(CNC(=O)CN2C(=O)CCCc3ccccc32)c1`: inactive: -9.03%. The value for `Cc1ccc(-c2nc(CS(=O)(=O)CC(=O)NCc3ccccc3Cl)c(C)o2)cc1` was inactive: 0.396%. In the case of `COc1cccc(C(=O)Nc2ccccc2-c2nc3ccccc3s2)c1`, the activation was inactive: -9.02%. Next, `CN(C)S(=O)(=O)c1ccc2c(c1)N(CC(=O)N1CCN(c3ccccc3F)CC1)CCS2`: inactive: -7.06%; `CCc1cccc(C)c1NC(=O)CN1C(=O)C2(SCC(=O)N2c2cc(C)cc(C)c2)c2ccccc21` (centres undefined): inactive: -7.5%; `CC1=C(C(=O)Nc2cccc(C(F)(F)F)c2)C2(CCCCC2)OC1=O`: inactive: -33%.

With `Cc1oc(-c2cccc(Cl)c2)nc1CN1CCCC(C(=O)NCc2ccc(Cl)cc2)C1` (centres undefined), the activation was inactive: 11%. As to `NC(N)=NCCC[C@H](N)C(=O)O`, the activation is inactive: 0.264% and inactive: 10.9%. For `Cc1ccccc1CNC(=O)c1sc2ncnc(N(C)C3CCCCC3)c2c1C`, the activation was inactive: -6.58%. As for `O=S(=O)(c1ccc2[nH]c3c(c2c1)CCCCC3)N1CCN(c2cccc(Cl)c2)CC1`, the activation was inactive: 3.38%. With `Cc1cccc(NC(=O)c2sc(-n3nc(C)c(CCC(C)C)c3C)nc2C)c1C`, the activation was inactive: -8.8%.

For the molecule `OCc1cccnc1`, the activation is inactive: 11.5%. In the case of `CCc1ccc(NS(=O)(=O)c2ccc(C(=O)N(C)C)s2)cc1`, the activation is inactive: 22.9%. With `O=C(C1CC1)N1CCc2cc(Br)cc(S(=O)(=O)N3CCN(c4ccccc4)CC3)c21`, the activation was inactive: -6.37%. Next, `Cn1c(=O)c2sccc2n2c(CCC(=O)N3CCN(c4cccc(Cl)c4)CC3)nnc12`: inactive: 12.3%. The value for `CCCCOC(=O)c1ccc(Nc2nc3ccccc3c3nnc(C)n23)cc1` was inactive: -0.316%. With `CCCCC(=O)Nc1nnc(S(=O)(=O)N(CC)c2cc(C)cc(C)c2)s1`, the activation is inactive: -9.29%. The value for `Cc1c(CNCCc2ccc(S(N)(=O)=O)cc2)c(C(=O)O)c(C)n1Cc1ccc(Cl)cc1` was inactive: 1.27%; that for `CCOc1ccc(/C=C(\C#N)C(=O)Nc2sc3c(c2C(=O)OC)C(C(=O)OC)CC3)cc1OC` (centres undefined) was inactive: -5.34%; that for `CN(C(=O)CSc1nc2ccccc2n1CC(=O)N(C)c1ccc(F)cc1)c1ccccc1` was inactive: 12.8%. `CCc1ccccc1NC(=O)Cn1nnc(C(=O)NCc2cccs2)c1N`: the activation was inactive: 12.6%. The value for `COc1cc(NC(=O)c2cc(-c3ccc(Cl)c(Cl)c3)on2)cc(OC)c1OC` was inactive: 19.5%. The value for `COc1ccc(CNCCSc2nnnn2-c2ccccc2)c(OC)c1` was inactive: -5.29%.

As to `O=C(CSc1nccn1Cc1ccc(F)cc1)Nc1ccc2c(c1)OCO2`, the activation was inactive: -13.8%.

Regarding `Cc1ccc(CNC(=O)CN2C(=O)C3(SCC(=O)N3c3cc(C)cc(C)c3)c3ccccc32)cc1` (centres undefined), the activation was inactive: -19.6%.

For `COc1ccc(N2CCN(C(=O)C3CCN(S(=O)(=O)Cc4ccccc4)CC3)CC2)cc1`, the activation was inactive: -0.871%. The value for `CCOc1ccc(Nc2oc(-c3ccc(COc4ccccc4C)o3)nc2C#N)cc1` was inactive: -16.9%; that for `Cc1nc(-c2cccc(F)c2)sc1CCNC(=O)c1ccc(F)c(F)c1` was active: 62.6%. Consider `CCN(c1ccccc1)S(=O)(=O)c1ccc(F)c(C(=O)Nc2ccc(C)cc2)c1`, for which the activation was inactive: -8.69%. The value for `COc1cccc(C2C(C(=O)Nc3ccccc3)=C(C)Nc3nnnn32)c1OC` (centres undefined) was inactive: -6.45%; that for `N[C@H](C(=O)O)[C@@H](O)c1ccc(O)c(O)c1` was inactive: 4.51%; that for `COc1cc2c(-c3ccc(C)cc3)nc3c(c(C)nn3-c3ccccc3)c2cc1OC` was inactive: -2.68%. Consider `CCc1ccccc1NC(=O)C1COc2ccccc2C1` (centres undefined), for which the activation was inactive: -18.9%. The value for `Cn1cnc(S(=O)(=O)N2CCC(C(=O)N3CCN(c4ccc(Cl)cc4)CC3)CC2)c1` was inactive: -4.79%; that for `N#C/C(=C\c1ccccc1)C(=O)Nc1sc2c(c1C(N)=O)CCC2` was inactive: -13.2%; that for `CC(C)Oc1ccc(CNC(=O)c2cnc3sc(N4CCCCC4)nn3c2=O)cc1` was inactive: -2.25%.

Consider `CC(=O)Nc1ccc(-n2c(CCC(=O)O)ccc2-c2ccc(C)cc2)cc1`, for which the activation is inactive: -8.55%. The value for `CCOC(=O)c1oc2ccc(S(=O)(=O)n3nc(-c4cc(OC)cc(OC)c4)cc3N)cc2c1C` was inactive: -9.56%. As to `Cc1cc(C)cc(OCC(=O)Nc2ccc(Cl)c(-c3nc4ncccc4o3)c2)c1`, the activation was inactive: 22.4%.

Consider `N#Cc1ccc(OC(=O)c2cc(-c3ccc4c(c3)OCCO4)on2)cc1`, for which the activation is inactive: -15.7%. The value for `CCc1ccc(Sc2cc(C(=O)NCCCOC(C)C)c3ccccc3n2)cc1` was inactive: 29.8%. For the molecule `CCCn1c(=O)c2sccc2n2c(CCCC(=O)N3CCN(c4cccc(C)c4C)CC3)nnc12`, the activation was inactive: -2.22%.

Turning to `Cc1ccc(NC(=O)CSc2nc3c(oc4ccccc43)c(=O)n2Cc2ccco2)cc1`, the activation was inactive: -20.7%. Take `CC(=O)N(Cc1cccnc1)c1nc2c(C)cccc2s1`: the activation is inactive: -16%. Turning to `Cn1cc(-c2cc3n(n2)CCC(=O)N3CCCC(=O)Nc2ccc(F)cc2F)c2ccccc21`, the activation was inactive: -3.39%. As for `Cc1cc(C)cc(-n2ccnc2SCC(=O)Nc2ccc3c(c2)OCO3)c1`, the activation was inactive: -11.9%.

On to `Cc1cc2nc(-c3ccc(Br)cc3)cc(C(F)(F)F)n2n1`, for which the activation was inactive: -1.13%. As for `COc1ccc(CCn2c(=O)c3cccnc3n(CC(=O)Nc3cccc(C)c3)c2=O)cc1OC`, the activation is inactive: -8.09%. The value for `CCOC(=O)C1CCN(C(=O)Cn2nc(C)n3c(cc4cc(C)ccc43)c2=O)CC1` was inactive: -0.509%; that for `COc1ccc(S(=O)(=O)NCc2ccc3c(c2)CCN3C(=O)c2ccc(C)cc2)cc1Cl` was inactive: -22.8%; that for `Cc1nc2c(C(=O)NCCc3ccc(Cl)cc3)c[nH]n2c(=O)c1Cc1ccccc1F` was inactive: 24.1%. Take `CCc1ccc(-c2cn3c(n2)sc2cc(C(=O)NCC(C)c4ccccc4)ccc23)cc1` (centres undefined): the activation was inactive: -11.9%.

Regarding `Cc1nnc2c(N3CCN(c4ccccc4)CC3)nc3ccc(C(=O)c4ccccc4)cc3n12`, the activation is inactive: -1.01%.

For `Cc1ccc2nc(NS(=O)(=O)c3ccc(Cl)cc3)c(Nc3ccc(C(=O)O)cc3)nc2c1`, the activation was active: 83.2%.

Consider `CCc1ccc(N2CCn3c2nc2c3c(=O)n(Cc3c(F)cccc3Cl)c(=O)n2C)cc1`, for which the activation was inactive: -3.21%. `CCOC(=O)c1ccc(NC(=O)CCS(=O)(=O)c2ccc3c(c2)oc(=O)n3C)cc1`: the activation was inactive: -20.7%. Next, `CCCCCn1c(=O)[nH]c2cc(C(=O)NCc3ccc(OC)cc3)ccc2c1=O`: inactive: -5.52%. The value for `CCCC(=O)O[C@]1(C(=O)CCl)[C@@H](C)C[C@H]2[C@@H]3CCC4=CC(=O)C=C[C@]4(C)[C@@]3(F)C(=O)C[C@@]21C` was inactive: -21.2%.

In the case of `COc1ccc(C2NC(=O)c3c(sc4c3CCN(C)C4)N2)cc1O` (centres undefined), the activation was inactive: -29.9%. Next, `CCN(CCCNC(=O)c1cc2c(=O)[nH]c3ccc(C)cc3c2s1)c1ccc(C)cc1`: inactive: -32.6%.

As to `CCc1ccc(NC(=O)C(CC)n2nnc(C(=O)OC)c2C(=O)OC)cc1` (centres undefined), the activation was inactive: 24.7%. With `CCOc1ccc(-n2nc3cc(C)c(NC(=O)CC)cc3n2)cc1`, the activation is inactive: 1.59%.

Regarding `COc1ccccc1N(CC(=O)Nc1ccccc1F)S(C)(=O)=O`, the activation is inactive: -3.32%.

With `CCCCN(CCCC)CCNC(=O)CN1C(=O)CSc2ccc(S(=O)(=O)N3CCCCC3)cc21`, the activation was inactive: -18.1%. The value for `Cc1cccc(CN2C(=O)CC(c3ccc(Cl)cc3)c3c(C)nn(-c4nc(C)cc(C)n4)c32)c1` (centres undefined) was inactive: -27%; that for `COc1ccccc1NC(=O)CN1C(=O)c2cccc3cccc1c23` was inactive: 31.9%; that for `Cc1cccc(N2CCN(C(=O)C3CCN(S(=O)(=O)c4cn(C)cn4)CC3)CC2)c1C` was inactive: -1.25%. Next, `Cc1ccc(Cl)cc1N1CCN(S(=O)(=O)c2ccc3[nH]c4c(c3c2)CCCC4)CC1`: inactive: 0.461%; `CCOc1ccc2ccccc2c1C(=O)N[C@@H]1C(=O)N2[C@@H]1SC(C)(C)[C@@H]2C(=O)O`: inactive: -3%. Consider `Cc1ccc(NC(=O)N2CCN(c3nnc(C)c4c(C)n(-c5ccccc5)nc34)CC2)cc1Cl`, for which the activation was inactive: -12.6%.

In the case of `Cc1ccc(Cl)cc1Nc1nn2c(=O)c3ccc(C(=O)NCc4cccs4)cc3nc2s1`, the activation was inactive: 29.3%. Turning to `COc1ccccc1NC(=O)C1CCN(S(=O)(=O)c2ccc3c(c2)oc(=O)n3C)CC1`, the activation was inactive: 13.7%. With `CCCN1C(=O)c2ccccc2CC1(C)C(=O)NC1CCCCC1` (centres undefined), the activation was inactive: -4.86%.

Values taken from PubChem BioAssay AID1346428 (National Center for Advancing Translational Sciences (NCATS), 2018).
